PubChem BioAssay AID493208 (National Center for Advancing Translational Sciences (NCATS), 2011)
Hit rate of the full screen: of about 44,000 compounds, about 340 (0.77%) were called active. Inconclusive results (about 5%) are left out. Calls come from the whole dose curve; as a rule, active = well fitted inhibition curve with a large enough effect; inconclusive = small, poorly fitted or top-dose-only effect; inactive = flat fitted curve, though single readings scatter. The list shows a part of the results.

Assay: Acumen qHTS Assay for Inhibitors of the mTORC1 Signaling Pathway in MEF (Tsc2-/-, p53-/-) Cells: Sytravon;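 note: plate controls were DMSO for no effect and rapamycin for full effect; nearly all actives have a fitted effect of over 50% in size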
Conditions: phospho-rpS6 immunofluorescence/PI, 24 h; series mostly up to 38.3 µM; activity change, negative = inhibition: at the top concentration
Outline: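 Tsc2-/-, p53-/- mouse embryonic fibroblasts (empty-vector line) exposed to compound 24 hrs at 37 C, fixed, immunostained for phospho-rpS6 and counterstained with propidium iodide. Acumen laser scanning gives % positive cells from Alexa 488/PI ratio, thresholded using 7.5 nM rapamycin; PI count gives viability.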

Question: With `Cc1ccc(CCNC(=O)c2cn(C)c3ccc(S(=O)(=O)N(C)C4CCCCC4)cc3c2=O)cc1` as the compound, how does the “activity change, negative = inhibition” value read?
Answer: inactive: 0.767%

Question: With `CCOC(=O)Cn1c(=O)n(CC2CCCO2)c2nc(-c3ccccc3F)nc(C(N)=O)c21` (stereo not given) as the compound, how does the “activity change, negative = inhibition” value read?
Answer: inactive: 1.05%

Question: Which “activity change, negative = inhibition” value does the source give for `Cc1cccc(NC(=O)c2cc(S(=O)(=O)NCc3ccc4c(c3)OCO4)ccc2F)c1C` here?
Answer: inactive: 2.2%

Question: With `Cc1ccc(Cn2cc(C(=O)c3ccc(F)cc3)c(=O)c3cc4c(cc32)OCO4)cc1` as the compound, how does the “activity change, negative = inhibition” value read?
Answer: inactive: 3.24%

Question: With `COc1ccc(CNS(=O)(=O)c2cc3c(cc2C)N(C)CCO3)cc1` as the compound, how does the “activity change, negative = inhibition” value read?
Answer: inactive: -20.8%

Question: Which “activity change, negative = inhibition” value does the source give for `COc1ccccc1-n1c(=O)c2c3c(sc2n(C)c1=O)CN(C(C)=O)CC3` here?
Answer: inactive: 2.35%

Question: Which “activity change, negative = inhibition” value does the source give for `CCOC(=O)Cc1ccc(NC(=O)Nc2ccccc2OCc2cc(=O)n3ccccc3n2)cc1` here?
Answer: inactive: -3.22%

Question: With `O=C(NCc1ccc2c(c1)CCN2C(=O)c1ccccc1)Nc1cc(F)ccc1F` as the compound, how does the “activity change, negative = inhibition” value read?
Answer: inactive: -18.7%

Question: With `COc1ccc(Cn2c(CNS(=O)(=O)c3ccc(C)c(C)c3)nc3cccnc32)cc1` as the compound, how does the “activity change, negative = inhibition” value read?
Answer: inactive: -8.47%

Question: Which “activity change, negative = inhibition” value does the source give for `CCn1nnc2cc(C(=O)Nc3cccc(Cl)c3C)ccc21` here?
Answer: inactive: -4.73%

Question: With `COc1ccc(-c2nc3scc(CCNS(=O)(=O)c4ccccc4F)n3n2)cc1` as the compound, how does the “activity change, negative = inhibition” value read?
Answer: inactive: -0.172%

Question: Which “activity change, negative = inhibition” value does the source give for `COc1ccc(-c2noc(-c3ccc(N4CCCC4)c([N+](=O)[O-])c3)n2)cc1` here?
Answer: inactive: -0.155%

Question: For `COc1ccc(C)cc1S(=O)(=O)NCC(c1cccs1)S(=O)(=O)c1ccc(C)cc1` (stereo not given), which “activity change, negative = inhibition” value is on record?
Answer: inactive: -6.57%

Question: Which “activity change, negative = inhibition” value does the source give for `CCN1CCN(c2ncnc3c2cnn3-c2ccc(C)c(Cl)c2)CC1` here?
Answer: inactive: 0%

Question: For `O=C(NC1CCCCCC1)C1CCN(C(=O)N2CCOc3ccc(Cl)cc32)CC1`, which “activity change, negative = inhibition” value is on record?
Answer: inactive: -9.12%

Question: Which “activity change, negative = inhibition” value does the source give for `CCCCc1nn2c(=O)cc(COC(=O)c3cccc(NC(=O)COc4ccccc4)c3)nc2s1` here?
Answer: inactive: 0%

Question: Which “activity change, negative = inhibition” value does the source give for `Cc1ccc(C2=NN(CC(=O)NCCCN(CC(C)C)CC(C)C)C(=O)CC2)cc1` here?
Answer: inactive: 11.2%

Question: With `Cc1cc(C)n(-c2nc3ccccc3nc2Nc2ccc(C(C)C)cc2)n1` as the compound, how does the “activity change, negative = inhibition” value read?
Answer: inactive: 1.04%

Question: With `Cc1cc2[nH]c(=O)c(=O)[nH]c2cc1S(=O)(=O)NCc1ccc(F)cc1` as the compound, how does the “activity change, negative = inhibition” value read?
Answer: inactive: 0.7%

Question: For `CCOCCCNC(=O)c1ccc2c(c1)NC(=O)C(CS(=O)(=O)Cc1ccc(F)cc1Cl)N2` (stereo not given), which “activity change, negative = inhibition” value is on record?
Answer: inactive: 0.67%

Question: With `CCN(CCCNC(=O)CSc1cc(=O)n(C)c2ccccc12)c1ccccc1` as the compound, how does the “activity change, negative = inhibition” value read?
Answer: inactive: -0.148%

Question: With `O=C(Nc1ccc(Cl)cc1Cl)c1cc(S(=O)(=O)N2CCC3(CC2)OCCO3)ccc1F` as the compound, how does the “activity change, negative = inhibition” value read?
Answer: inactive: 8.57%

Question: With `Cc1cc(C)c(NC(=O)C(C)n2c(=O)cc(C)c3c(C)nn(-c4ccccc4)c32)c(C)c1` (stereo not given) as the compound, how does the “activity change, negative = inhibition” value read?
Answer: inactive: -6.02%

Question: Which “activity change, negative = inhibition” value does the source give for `CC(=O)N1CCc2c(sc3c2c(=O)n(-c2ccccc2)c(=O)n3CC(=O)c2ccc(Cl)cc2)C1` here?
Answer: inactive: 1.3%

Question: For `O=C(NCc1cccc(F)c1)C1CCN(c2nc3ccccc3nc2C(F)(F)F)CC1`, which “activity change, negative = inhibition” value is on record?
Answer: inactive: -6.9%

Question: Which “activity change, negative = inhibition” value does the source give for `COCCNC(=O)CCn1c(=O)c2cc(OC)c(OC)cc2n(CC(=O)Nc2ccc(F)c(Cl)c2)c1=O` here?
Answer: inactive: 7.77%

Question: Which “activity change, negative = inhibition” value does the source give for `Cc1cc(C)c(NC(=O)Cn2c(=O)n(-c3cccc(C(F)(F)F)c3)c(=O)c3c(C)c(C)sc32)c(C)c1` here?
Answer: inactive: -1.28%

Question: With `CC(=O)N1CCOc2cc(S(=O)(=O)NCc3ccccc3Cl)c(C)cc21` as the compound, how does the “activity change, negative = inhibition” value read?
Answer: inactive: 4.36%

Question: With `O=C(O)c1ccc(Nc2nc3ccccc3c3nncn23)cc1` as the compound, how does the “activity change, negative = inhibition” value read?
Answer: inactive: 8.2%

Question: For `COc1ccccc1NC(=O)C(Cc1ccccc1)NS(=O)(=O)c1ccc2c(c1)CCN2C(C)=O` (stereo not given), which “activity change, negative = inhibition” value is on record?
Answer: inactive: 0.514%

Question: For `CCc1ccccc1Nc1nn2c(=O)c3ccc(C(=O)NCc4ccc(C)cc4)cc3nc2s1`, which “activity change, negative = inhibition” value is on record?
Answer: inactive: -12.4%

Question: With `CC(C)(C)C(=O)Nc1cc(-c2cccc(Br)c2)nn1-c1ccccc1` as the compound, how does the “activity change, negative = inhibition” value read?
Answer: inactive: -9.73%

Question: With `COCCCNC(=O)c1ccc(Cn2c(=O)c3ccccc3n(CC(N)=O)c2=O)cc1` as the compound, how does the “activity change, negative = inhibition” value read?
Answer: inactive: 7.06%

Question: Which “activity change, negative = inhibition” value does the source give for `CCOC(=O)c1ccc(NC(=O)CSc2nc3ncc(Br)c(C)c3[nH]2)cc1` here?
Answer: inactive: -4.28%

Question: Which “activity change, negative = inhibition” value does the source give for `CCN(C(=O)c1ccc2c(c1)N(Cc1cccc(Cl)c1)C(=O)c1ccccc1S2=O)c1ccccc1` (stereo not given) here?
Answer: inactive: -0.822%

Question: Which “activity change, negative = inhibition” value does the source give for `CCC(=O)N1c2ccccc2CC1C(=O)NCCCN1CCN(c2cc(C)ccc2C)CC1` (stereo not given) here?
Answer: inactive: 0%

Question: Which “activity change, negative = inhibition” value does the source give for `COc1ccc(-c2cc3nc(N)cc(=O)n3[nH]2)cc1` here?
Answer: inactive: 1.08%

Question: With `O=C(NCCCc1nc2ccccc2n1Cc1ccc(F)cc1)C1CCCCC1` as the compound, how does the “activity change, negative = inhibition” value read?
Answer: inactive: -0.396%

Question: Which “activity change, negative = inhibition” value does the source give for `Cc1ccc(C)c(CSc2nc3c([nH]c4ccccc43)c(=O)n2C)c1` here?
Answer: inactive: -1.65%

Question: With `CC(C)c1ccc2oc(-c3ccc(Cl)c(NC(=O)c4cccs4)c3)nc2c1` as the compound, how does the “activity change, negative = inhibition” value read?
Answer: inactive: -15.2%

Question: For `Cn1nc(-c2ccc(OCC(=O)Nc3cccc(C(F)(F)F)c3)cc2)c2ccccc2c1=O`, which “activity change, negative = inhibition” value is on record?
Answer: inactive: -25.9%

Question: Which “activity change, negative = inhibition” value does the source give for `Cc1cccc(C)c1OCc1cc(=O)n2c(-c3ccccc3)csc2n1` here?
Answer: inactive: -10.5%

Question: Which “activity change, negative = inhibition” value does the source give for `COc1ccc(NC(=O)c2cc(S(=O)(=O)N3CCOCC3)cn2C)cc1Cl` here?
Answer: inactive: -1.24%

Question: With `Cc1ccc(C(=O)Nc2ccc(F)cc2)cc1S(=O)(=O)N1CCCCCC1` as the compound, how does the “activity change, negative = inhibition” value read?
Answer: inactive: 3.99%

Question: With `COc1cccc2c1cc1c(=O)n(CC(=O)N3CCN(c4ccccc4F)CC3)nc(C)n12` as the compound, how does the “activity change, negative = inhibition” value read?
Answer: inactive: -8.46%

Question: For `O=C1CS(=O)(=O)C2(C(=O)Nc3ccccc32)N1c1cccc(Cl)c1` (stereo not given), which “activity change, negative = inhibition” value is on record?
Answer: inactive: -4.84%

Question: With `CCOc1ccc(NC(=O)CCCc2nc(-c3cccc(OC)c3)no2)cc1` as the compound, how does the “activity change, negative = inhibition” value read?
Answer: inactive: -10.7%

Question: For `Cc1ccc(CNC(=O)c2sc3nc(C)cc(C)c3c2-n2cccc2)cc1`, which “activity change, negative = inhibition” value is on record?
Answer: inactive: 0%

Question: For `Cc1cccc(Cn2c(C)c(C)c3cc(C(=O)NCc4ccco4)ccc32)c1`, which “activity change, negative = inhibition” value is on record?
Answer: inactive: -9.9%

Question: Which “activity change, negative = inhibition” value does the source give for `CC(=O)Nc1ccccc1OCc1cc(=O)n2c3c(sc2n1)CCCC3` here?
Answer: inactive: -0.118%

Question: With `Cn1c2ccccc2c2cnn(CC(=O)NCc3ccc(Cl)cc3)c(=O)c21` as the compound, how does the “activity change, negative = inhibition” value read?
Answer: inactive: -0.708%

Question: Which “activity change, negative = inhibition” value does the source give for `COc1ccc2[nH]c(=O)c(CN(C(=O)c3cccc(Cl)c3)c3ccccc3OC)cc2c1` here?
Answer: inactive: 0.784%

Question: Which “activity change, negative = inhibition” value does the source give for `COc1ccc(S(=O)(=O)NCCc2csc3nc(-c4ccc(Cl)cc4)nn23)cc1C` here?
Answer: inactive: -15.4%

Question: With `CS(=O)(=O)N1CCc2cc(S(=O)(=O)NCc3ccccc3Cl)ccc21` as the compound, how does the “activity change, negative = inhibition” value read?
Answer: inactive: -2.14%

Question: For `COc1ccc(-c2nc(Cn3c(SCc4cccc(Cl)c4)nc4ccncc43)c(C)o2)cc1`, which “activity change, negative = inhibition” value is on record?
Answer: inactive: -14.3%

Question: For `Cn1cnc(S(=O)(=O)N2CCC(C(=O)NCc3ccccc3)CC2)c1`, which “activity change, negative = inhibition” value is on record?
Answer: inactive: -8.64%

Question: For `CC1=C(c2ccc(F)cc2)S(=O)(=O)N=C1N1CCC(C(=O)NCCc2ccco2)CC1`, which “activity change, negative = inhibition” value is on record?
Answer: inactive: -16.7%

Question: With `CCOC(=O)c1c(S(=O)(=O)N2CCCC(C(=O)N(C)Cc3ccccc3)C2)c(C)n(C)c1C` (stereo not given) as the compound, how does the “activity change, negative = inhibition” value read?
Answer: inactive: 1.26%

Question: For `COc1cc(NC(=O)Cn2ccn(Cc3ccccc3OC)c(=O)c2=O)cc(OC)c1`, which “activity change, negative = inhibition” value is on record?
Answer: inactive: -0.369%

Question: With `COC(=O)c1cc2c(cc1NC(=O)c1c(C)nn(-c3ccc(C)cc3)c1-n1cccc1)OCO2` as the compound, how does the “activity change, negative = inhibition” value read?
Answer: inactive: -0.619%
